Reference: PMC4336329 (PLoS ONE, 2015)
Out of some 310,000 compounds screened, about 2,200 (0.71%) showed an effect of 50% or more. Effects have a minus sign here. The list shows a part of the results.

Each compound was assayed against human ether-à-go-go-related gene (hERG) potassium channel (human, UniProt Q12809) (assay: primary screen, population patch clamp on CHO cells stably expressing hERG).
Chain of human ether-à-go-go-related gene (hERG) potassium channel (Q12809 whole entry, looked up): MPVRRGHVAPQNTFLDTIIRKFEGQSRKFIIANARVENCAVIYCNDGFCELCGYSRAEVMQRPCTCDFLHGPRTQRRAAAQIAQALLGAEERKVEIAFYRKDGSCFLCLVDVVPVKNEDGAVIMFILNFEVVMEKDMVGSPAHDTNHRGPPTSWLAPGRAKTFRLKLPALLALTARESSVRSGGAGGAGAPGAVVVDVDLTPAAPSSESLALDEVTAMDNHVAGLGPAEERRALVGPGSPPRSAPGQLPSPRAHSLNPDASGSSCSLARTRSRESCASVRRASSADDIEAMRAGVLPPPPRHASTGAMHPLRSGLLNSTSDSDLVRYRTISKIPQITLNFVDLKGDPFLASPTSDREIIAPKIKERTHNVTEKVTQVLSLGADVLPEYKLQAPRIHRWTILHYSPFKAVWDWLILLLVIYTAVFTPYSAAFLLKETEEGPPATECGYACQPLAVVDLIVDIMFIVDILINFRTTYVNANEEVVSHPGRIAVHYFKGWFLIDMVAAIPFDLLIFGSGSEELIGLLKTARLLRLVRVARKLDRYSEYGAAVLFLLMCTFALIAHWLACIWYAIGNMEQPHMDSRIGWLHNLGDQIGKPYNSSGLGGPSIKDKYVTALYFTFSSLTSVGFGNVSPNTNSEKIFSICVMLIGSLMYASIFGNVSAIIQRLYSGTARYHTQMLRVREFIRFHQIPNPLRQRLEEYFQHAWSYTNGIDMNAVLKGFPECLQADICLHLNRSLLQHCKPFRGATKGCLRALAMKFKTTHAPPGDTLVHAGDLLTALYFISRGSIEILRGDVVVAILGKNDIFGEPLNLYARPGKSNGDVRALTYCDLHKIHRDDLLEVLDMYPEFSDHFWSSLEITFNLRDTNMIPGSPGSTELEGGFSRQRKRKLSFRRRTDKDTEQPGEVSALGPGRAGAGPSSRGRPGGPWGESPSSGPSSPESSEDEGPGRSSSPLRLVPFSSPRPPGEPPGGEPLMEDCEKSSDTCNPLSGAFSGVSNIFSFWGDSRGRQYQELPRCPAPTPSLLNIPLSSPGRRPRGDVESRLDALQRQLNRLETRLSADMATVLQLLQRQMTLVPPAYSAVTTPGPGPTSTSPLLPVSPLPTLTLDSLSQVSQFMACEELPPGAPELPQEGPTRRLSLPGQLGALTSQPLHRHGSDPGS

Row | Structure (SMILES) | hERG current change (%, negative = inhibition) at 1uM [%]
1 | CCc1cccc(NS(=O)(=O)c2ccc3c(c2)oc(=O)n3C)c1 | 6.52
2 | CC(=O)c1c(C)[nH]c(C(=O)OCC(=O)C(C)(C)C)c1C | 1.8
3 | COC(=O)c1ccccc1NC(=O)C1CC(c2ccccc2O)=NO1 (centres unmarked) | 10.4
4 | Cc1ccc(C(=O)N2CCN(c3ccc([N+](=O)[O-])c(NCc4ccco4)c3)CC2)cc1 | -5.23
5 | COc1ccc(S(=O)(=O)Nc2ccc3c(c2)OCO3)cc1C | 0.107
6 | CS(=O)(=O)c1ccc2c(c1)SC1=NC(=O)/C(=C/c3ccco3)C(=N)N12 | 17.5
7 | Cc1cc(C)cc(NC(=O)CCc2c(C)nn(-c3ccc(N4CCOCC4)nn3)c2C)c1 | 9.8
8 | c1ccc(Oc2cccc3cccnc23)nc1 | 10.7
9 | S=C(Nc1ccc2c(c1)OCO2)N1CCN(Cc2ccco2)CC1 | 14.1
10 | O=C(O)CN1C(=O)/C(=C\c2cn(CC(=O)N3CCOCC3)c3ccccc23)SC1=S | 14.1
11 | Cc1nn(CC(=O)NCCc2ccccc2)c(=O)c2cc3occc3n12 | 8.76
12 | COc1cc(NC(=O)C2CCCCC2)c(OC)cc1NC(=O)CCC(=O)NCc1ccco1 | 0.466
13 | COC(=O)[C@H](CC(C)C)NS(=O)(=O)N(Cc1ccccc1)[C@@H](CC(C)C)C(=O)OC | 11.2
14 | CCOc1ccc(N2C(=O)CC(Sc3nc(C)cc(C)c3C#N)C2=O)cc1 (centres unmarked) | 6.39
15 | Cc1cc(C(C)(C)C)cc(C)c1N.Cl | 8.95
16 | CCOc1cc(CNS(=O)(=O)c2cn(C)cn2)cc(OCC)c1OCC | 19.1
17 | CCS(=O)(=O)c1ccc2oc(Nc3ccccc3Cl)nc2c1 | 9.22
18 | COc1ccc(CCNC(=O)c2cc([N+](=O)[O-])ccc2N2CCOCC2)cc1 | 1.7
19 | O=C1CC[C@@H](CN(Cc2ccccn2)Cc2nc(Cc3cccc(C(F)(F)F)c3)no2)N1 | -21.5
20 | COc1ccc(CC(NC(C)=O)C(=O)NC2CCN(C(=O)Nc3ccc(C#N)cc3)CC2)cc1OC (centres unmarked) | 1.74
21 | N#Cc1ccc(-c2ccccc2)nc1Sc1ccc(F)cc1 | 9.74
22 | Br.OCCn1c(-c2ccc(F)cc2)csc1=Nc1ccccc1 | 8.62

Row | Structure (SMILES) | hERG current change (%, negative = inhibition) at 1uM [%]
23 | CN1CC2CCCC3(C1)C(=O)NC1(CCCCC1)N=C23 (centres unmarked) | 5.99
24 | CCOC(=O)C1(Cc2cccc(OC)c2)CCCN(C(=O)c2cc(C)oc2C)C1 (centres unmarked) | 4.99
25 | Cc1ccccc1OCC(=O)Nc1nc(C)c(C(=O)N(C)C)s1 | 11.6
26 | COc1cccc(CSc2nc3nc(C)cc(C)n3n2)c1 | 10.4
27 | COc1ccccc1N(CC(=O)NC1CCCCC1)S(=O)(=O)c1cccs1 | 2.78
28 | Nc1ccc(C#Cc2ccc3oc4ccccc4c(=O)c3c2)cc1 | 12.1
29 | O=C(N[C@@H](Cc1ccccc1)C(=O)OCc1ccccc1)c1nc[nH]c1C(=O)NC1CC[NH2+]CC1.[Cl-] | 11.6
30 | O=C(CC1SC(N2CCCCC2)=NC1=O)Nc1cccc(C(=O)Nc2ncccc2O)c1 (centres unmarked) | 9.67
31 | COc1ccccc1-c1c(C)nn2c(N3CCC(C)CC3)cc(C)nc12 | 10.7
32 | CCOC(=O)c1cnc2c(OC)cccc2c1N1CCN(c2ccc(OC)cc2)CC1 | 7.99
33 | COc1ccc(C2NC(=O)NC3=C2CCc2ccccc23)cc1 (centres unmarked) | 12.9
34 | Cc1nn(C)cc1C(C(=O)NC1CCCCC1)N(Cc1ccc(F)cc1)C(=O)c1cnccn1 (centres unmarked) | 12.4
35 | COc1ccc(S(=O)(=O)N2CCC(C(=O)NCc3ccncc3)CC2)cc1C | 9.02
36 | COc1ccc(C)cc1S(=O)(=O)N(C)CC(=O)NCc1ccncc1 | 14.1
37 | COc1cc(C2C3=C(CC(C)(C)CC3=O)Nc3ccccc3N2C(C)=O)cc(OC)c1OC (centres unmarked) | 12.4
38 | Cc1nc(CN2CCN(C(=O)c3ccc(Br)cc3)CC2)cs1 | 9.67
39 | O=C(Cn1sc2ccccc2c1=O)N1CCN(C(=O)c2ccco2)CC1 | 6.74
40 | O=C1CSC(c2cn(-c3ccccc3)nc2-c2cccs2)N1Cc1ccccc1 (centres unmarked) | 11.3
41 | COC(=O)c1[nH]c2cc(C)ccc2c1NC(=O)CN1CCc2cc(OC)c(OC)cc2C1 | 9.75
42 | O=C(COc1ccc(Br)cc1)N1CCN(S(=O)(=O)/C=C/c2ccccc2)CC1 | 2.95
43 | CN(Cc1ccccc1)/C(=N/O)c1cccc(Cl)c1 | 13.2
44 | C=CCc1cc(Cl)ccc1OCCOCCN(C)C.O=C(O)C(=O)O | 6.3

Row | Structure (SMILES) | hERG current change (%, negative = inhibition) at 1uM [%]
45 | CCN(C(=O)COC(=O)c1cn(C)c2ccccc12)c1ccc(F)cc1 | 9.43
46 | C/C(Cl)=C/Cc1c(C)[nH]c2c(ccc3ccccc32)c1=O | 21.2
47 | Cn1nc(C(=O)Nc2ccccc2N2CCCC2)c2ccccc2c1=O | 2.57
48 | CCOc1cc(/C=C2\COc3ccccc3C2=O)ccc1OCC(=O)N(C)C | 20.9
49 | O=C1N/C(=C/c2ccc(Br)cc2)C(O)=C1C=NCc1ccccc1 | 3.82
50 | S=c1[nH]nc(-c2cccnc2)n1/N=C/C=C/c1ccco1 | 5.23
51 | C=CCN1C(=O)C(CC(=O)O)SC1=Nc1c(C)n(C)n(-c2ccccc2)c1=O (centres unmarked) | 2.51
52 | CCOc1ccc(NS(=O)(=O)c2ccc(C(=O)NCC(c3ccco3)N(C)C)cc2)cc1 (centres unmarked) | 4.56
53 | O=C(O)c1cc(S(=O)(=O)N2CC3CC3C2C(=O)O)c(Cl)cc1Cl (centres unmarked) | 13.9
54 | O=C(CCC(=O)c1cccs1)Nc1ccccc1F | 5.69
55 | Cc1nc2ccc(NC(=O)N3CCCCC3)cc2nc1C | 15.3
56 | COc1cccc(CNS(=O)(=O)c2ccc(S(=O)(=O)NC3CC3)cc2)c1 | 11.1
57 | Oc1cc(Br)ccc1C=Nc1ccc(N2CCCCC2)cc1 | 9.03
58 | O=C(OCC(=O)N1CCN(S(=O)(=O)c2ccc(Cl)cc2)CC1)C1CC1 | 1.98
59 | Oc1ccccc1/C=N/N1CCN(c2ccccn2)CC1 | 9.06
60 | CCOc1cc(C(c2c(C)[nH][nH]c2=O)c2c(C)[nH][nH]c2=O)cc(Br)c1OC | 16.3
61 | O=C(NC1CC2CCCC(C1)N2Cc1ccccc1)c1ccc([N+](=O)[O-])cc1 (centres unmarked) | -82.2
62 | CN1C(C(=O)NCc2cccs2)=CC(c2ccc(F)cc2)=NS1(=O)=O | 4
63 | Cc1cccc2c1OCC/C2=N\NC(=O)COc1ccccc1 | 11.2
64 | CCOc1ccc(S(=O)(=O)N(CC)CC)cc1N | 1.64
65 | Cc1nc([N+](=O)[O-])c(C(=O)OCc2cccc(Br)c2)n1C | -0.133
66 | CC(=O)Nc1ccc(S(=O)(=O)N(C)CC(=O)OCC(=O)NCc2ccco2)cc1 | 3.99

Row | Structure (SMILES) | hERG current change (%, negative = inhibition) at 1uM [%]
67 | CCc1cccc(C)c1NC(=O)COC(=O)CC1CCCC1 | 4.9
68 | COc1cccc(OC)c1C(=O)Nc1ccccc1C(=O)N1CCOCC1 | 7.58
69 | O=C(Nc1ccncc1)c1ccc(NS(=O)(=O)c2cccc(F)c2)cc1 | 3.76
70 | O=C(Nc1ccc(N2CCCC2=O)cc1)c1cccc(F)c1 | -5.54
71 | COc1ccc(-n2c(SCC(=O)Nc3ccc(C)cc3)nc(O)c(Cc3ccccc3)c2=O)cc1 | 13.6
72 | CCn1c(COc2ccc(=O)n(-c3ccccc3)n2)nnc1SCc1ccc(C)cc1 | -22.6
73 | O=C(COC(=O)C12CC3CC(CC(O)(C3)C1)C2)Nc1ccc(Br)cc1F | -10.2
74 | COC(=O)[C@@H]1C[C@@]2(O)[C@@H](O)[C@@H](O)[C@@H](O)C[C@H]2N1Cc1ccc(-c2ccccc2)cc1 | 8.7
75 | COc1ccc(C(CNC(=O)CNC(=O)c2ccc(F)cc2)N2CCCC2)cc1 (centres unmarked) | 1.1
76 | N#CC(C#N)=c1ccc2c(c1)NC1(CCCCC1)N=2 | 13
77 | Cc1nn(C)c(C)c1CN(C(=O)C1CCC(=O)N(C2CCCCCC2)C1)C(C)C (centres unmarked) | 12.6
78 | CNS(=O)(=O)c1cccc(C(=O)OC2CCCCC2=O)c1 (centres unmarked) | 16.8
79 | COc1ccc(N(C(=O)c2cccnc2)S(=O)(=O)c2ccccc2)cc1 | 7.43
80 | CCC(O)(CC)C(=O)NN(C(=O)Nc1csc2c1CCCC2)c1ccccc1 | 12.3
81 | COCCCNC(=O)CCn1c(=O)c2ccccc2n(Cc2cccc([N+](=O)[O-])c2)c1=O | -16.5
82 | CCOC(=O)Nc1ccc(NC(=O)c2c(OC)cccc2OC)cc1 | 7.84
83 | OCc1ccc(O)c2ncccc12 | 2.3
84 | C/C(=N/OC(=O)C1CC1c1ccccc1)c1ccccc1 (centres unmarked) | 18.3
85 | COCCCNc1nc2ccccc2nc1NS(=O)(=O)c1ccc(C)cc1 | 5.09
86 | CC(C)N(Cc1nnc(-c2ccc(Cl)cc2)o1)C(=O)c1cc2ccccc2o1 | -0.713
